Experimental data taken from paper PMC4336329 (PLoS ONE, 2015).
In all, about 310,000 compounds went through this assay and about 14,000 (4.5%) showed an effect of 50% or more. Effects have a minus sign here. This is one part of the list.

Molecular target: human ether-à-go-go-related gene (hERG) potassium channel (human, UniProt Q12809)
Assay: primary screen, population patch clamp on CHO cells stably expressing hERG
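Further: peak tail current of the secondary pulse compared with the same well before compound.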

human ether-à-go-go-related gene (hERG) potassium channel, sequence (Q12809 whole entry, looked up): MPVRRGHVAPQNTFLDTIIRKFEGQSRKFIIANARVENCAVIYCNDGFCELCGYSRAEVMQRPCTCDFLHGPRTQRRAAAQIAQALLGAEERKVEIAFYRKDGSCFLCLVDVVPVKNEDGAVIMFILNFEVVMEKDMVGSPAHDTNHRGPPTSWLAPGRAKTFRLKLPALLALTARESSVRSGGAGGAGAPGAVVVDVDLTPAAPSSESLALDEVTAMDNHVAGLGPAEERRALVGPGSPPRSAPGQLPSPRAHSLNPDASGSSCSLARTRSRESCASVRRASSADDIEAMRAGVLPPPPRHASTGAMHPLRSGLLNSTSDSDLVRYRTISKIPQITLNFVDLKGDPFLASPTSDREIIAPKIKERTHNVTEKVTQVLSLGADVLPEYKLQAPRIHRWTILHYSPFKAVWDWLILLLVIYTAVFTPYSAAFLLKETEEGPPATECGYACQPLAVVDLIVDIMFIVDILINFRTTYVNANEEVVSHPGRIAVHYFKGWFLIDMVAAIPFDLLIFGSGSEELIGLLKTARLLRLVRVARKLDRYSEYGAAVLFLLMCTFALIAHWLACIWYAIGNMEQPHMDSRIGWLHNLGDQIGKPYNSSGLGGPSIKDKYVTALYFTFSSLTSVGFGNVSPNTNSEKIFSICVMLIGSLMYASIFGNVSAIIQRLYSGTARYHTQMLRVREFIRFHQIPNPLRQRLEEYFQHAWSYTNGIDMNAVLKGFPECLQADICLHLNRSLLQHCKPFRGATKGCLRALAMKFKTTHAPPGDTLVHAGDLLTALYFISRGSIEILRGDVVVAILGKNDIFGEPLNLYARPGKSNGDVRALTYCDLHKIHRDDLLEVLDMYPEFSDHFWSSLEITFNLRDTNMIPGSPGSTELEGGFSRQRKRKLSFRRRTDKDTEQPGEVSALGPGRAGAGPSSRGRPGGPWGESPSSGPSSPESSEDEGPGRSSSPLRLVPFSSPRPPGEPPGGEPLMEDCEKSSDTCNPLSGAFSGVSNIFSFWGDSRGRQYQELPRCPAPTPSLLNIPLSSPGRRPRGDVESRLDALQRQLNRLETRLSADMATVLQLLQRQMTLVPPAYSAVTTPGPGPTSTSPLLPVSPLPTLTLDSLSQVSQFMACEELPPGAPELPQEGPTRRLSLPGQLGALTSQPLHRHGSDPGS

Structure (SMILES) | hERG current change (%, negative = inhibition) at 10uM
COc1ccc(C2N(C(C)=O)CCN2S(=O)(=O)c2ccc(C)cc2)cc1 (stereo not drawn) | -8.25%
COc1ccc(CC2(CO)CCN(Cc3nc(C(C)C)cs3)CC2)cc1 | -48.4%
COc1ccc(CCCC(=O)NCCc2ccccc2)cc1 | 8.84%
O=C1NC2(CCCCC2)N=C1c1ccc(Br)cc1 | 7.33%
O=C(CCc1ccccc1)Nc1ccccc1C(=O)N1CCOCC1 | 9.16%
O=c1[nH]c2ccc(NC(=S)Nc3ccc(Cl)cc3)cc2[nH]1 | 16.8%
COc1ccc2c(C#N)c3ccccn3c2c1 | -3.17%
C=COCCNC(=S)N1CCOCCOCCN(C(=S)NCCOC=C)CCOCC1 | 55.7%
CC1CCN(C(=O)CN(CCc2ccccc2)S(C)(=O)=O)CC1 | -0.154%
O=C1NC(c2ccccc2Br)=N/C1=C\c1ccco1 | 2.86%
O=C(NC(=S)NCc1ccccc1)C1CC1 | 7.43%
COc1ccc(C2N(c3cccc(Cl)c3)C(=O)C3CCCN32)cc1 (stereo not drawn) | -4.79%
Cc1cccnc1NC(=O)CCc1nnc2ccc(NCc3ccco3)nn12 | 8.84%
CCN(CC)c1ccc(S(=O)(=O)N2CCOCC2)cc1NC(=O)CSc1nnc(N)s1 | -21.1%
CCOc1ccc(C2/C(=C(/O)c3ccc(F)cc3)C(=O)C(=O)N2CCCN(C)C)cc1 (stereo not drawn) | 16.4%
COC(=O)Cn1cnc2c(cnn2-c2ccc(C)cc2)c1=O | -2.53%
Cc1ccc(N(C(=O)c2ccc(S(=O)(=O)N3CCOCC3)cc2)C2C=CS(=O)(=O)C2)cc1C (stereo not drawn) | -6.34%
COc1cc(/C=N/NC(=O)c2ccc(C)nc2)cc([N+](=O)[O-])c1O | 12.8%
COc1ccc(C(C(=O)NC2CCCCC2)N(C(=O)Cc2c[nH]c3ccccc23)c2ccccc2C)cc1OC (stereo not drawn) | 0.528%
Cc1ccc2cc3cc(C(=O)N(CC(=O)NC4CCCC4)c4cccc(C)c4C)sc3nc2c1 | -9.68%
O=c1[nH]nc(-c2ccc(NCCCO)c([N+](=O)[O-])c2)c2ccccc12 | -9.98%

Structure (SMILES) | hERG current change (%, negative = inhibition) at 10uM
Cc1ccc2nc(NC(=O)c3ccc4c(c3)OCO4)sc2c1 | 3.26%
NS(=O)(=O)c1ccc(CCNC(=O)C2COc3ccccc3O2)cc1 (stereo not drawn) | -13.4%
CCN1C(=O)[C@@H]2[C@@H](c3ccc(SC4CCCCC4)cc3)N3CCC[C@@]3(C(=O)OC)[C@@H]2C1=O.O=C(O)C(F)(F)F | -12.7%
Cc1cc2[nH]c(=O)c(=O)[nH]c2cc1S(=O)(=O)Nc1cccc(C)c1C | 23.1%
CC12CCC(C(=O)N3CCCc4ccccc43)(CC1=O)C2(C)C (stereo not drawn) | 4.14%
CCOc1ccccc1-n1nnnc1SCC(=O)O | -3.73%
O=C(CCC1CCCC1)Nc1nnc(-c2ccc3c(c2)OCO3)s1 | 4.71%
Cc1cc(Nc2ccc(C)c(C)c2)n2nc(C)nc2n1 | -29.5%
COc1ccccc1CN1CC(C(=O)NCc2c(F)ccc(C)c2F)CCC1=O (stereo not drawn) | 4.66%
Cc1ccccc1CNC(=O)/C=C\C(=O)O | 3.23%
O=C(Oc1c(CN2CCOCC2)cc(Cl)c2cccnc12)c1cccs1 | -21.9%
Cn1c2ccccc2c2nnc(NN)nc21 | 12.2%
Cn1c(SCC(=O)N2CCOCC2)nc2c(c1=O)SCC2 | 15.8%
Cc1ccc2nc(N/N=C/c3ccccc3F)nc(-c3ccccc3)c2c1 | 0.778%
COc1ccccc1N1CCN(C(=O)CCCCCn2c(=O)[nH]c3ccsc3c2=O)CC1 | -24.7%
CCOc1ccc(NC(=O)CN(C)C(=O)c2ccccc2OCc2cccc(C)c2)cc1OCC | -10.3%
CCC(=O)Nc1cccc(NC(=O)CSc2nc3c(c(=O)n(C)c(=O)n3C)n2C)c1 | 18%
O=P(NS(=O)(=O)c1ccc(Br)cc1)(Oc1ccccc1)Oc1ccccc1 | 12.2%
Cc1ccc(OCC(=O)Nc2ccc(S(=O)(=O)N(C)C3CCN(C)CC3)cc2)c(C)c1 | -2.32%
O=C(CSc1n[nH]c(-c2cccnc2)n1)Nc1ccccc1[N+](=O)[O-] | -0.464%
CC(C)(C)NC(=O)NC(=O)CN1CCN(c2ccccc2)CC1 | -22.6%
